Reference: PubChem BioAssay AID1345082 (National Center for Advancing Translational Sciences (NCATS), 2018)
Out of some 94,000 compounds screened, about 4,000 (4.3%) were called active. The shares of active, inactive and inconclusive entries below differ from those in the screen. Calls follow the shape of the dose curve; as a rule, active = well fitted inhibition curve with a large enough effect; inconclusive = small, poorly fitted or top-dose-only effect; inactive = no such curve, though single readings can be large or run the other way. Where the call is inconclusive, the potency comes from a doubtful curve fit.

Test: Cytotoxic Profiling in NIH 3T3 Cell Line of Diverse Libraries Using Quantitative High-Throughput Screening; also: nearly all actives have a fitted effect of over 55% in size
Conditions: NIH 3T3 viability, CellTiter-Glo ATP luminescence, 48-72 h; activity change, negative = cytotoxicity: at 96.7 µM (top of the series) unless noted; series mostly up to 96.7 µM
In short: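 Viability of NIH 3T3 cells after 48 or 72 hr compound treatment at 37 °C was assessed by CellTiter-Glo, with luminescence imaged following a 10 min room-temperature step.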
% is scaled to controls: 0 for no effect and ±100 for the full control effect; potency is read from the fitted curve at half-maximal effect; tags tell the direction and shape of the fitted curve.

| SMILES | activity change, negative = cytotoxicity | Potency | outcome |
| --- | --- | --- | --- |
| CCCNC(=O)N1CCn2nc(C(O)c3ccccc3)cc2C1 (stereo unspecified) | inactive: 3.06% | – | – |
| COc1ccc(F)cc1-c1ccc(CN2CCCCC2C(=O)N2CCOCC2)cc1 (stereo unspecified) | – | inconclusive: 44.7 µM [inhibitor, partial curve, poor fit] | – |
| Clc1ccccc1C1(c2ccnc(C3CC3)n2)CCNCC1 | – | inconclusive: 50.1 µM [inhibitor, partial curve, poor fit] | – |
| CN(C)CC(=O)N1Cc2ccccc2CC2(CCCN(CCc3ccccc3)C2)C1 (stereo unspecified) | – | inconclusive: 50.1 µM [inhibitor, partial curve, poor fit] | – |
| O=C(NCc1ccc(OC(F)(F)F)cc1)N1CCC2(CC1)CN(c1ccccc1)C2=O | – | inconclusive: 12.6 µM [inhibitor, full curve, poor fit] | – |
| COC(=O)c1ccc2nc(C[C@@H]3C[C@@H](C(C)C)[C@H](CNC(=O)CC(C)(C)CC(=O)O)C=C3C)[nH]c2c1 | – | inconclusive: 100 µM [inhibitor, single point] | – |
| Cc1cc(C)c(CNC(=O)c2cc(-c3ccccc3O)cc3c2OCCN3C)c(=O)[nH]1 | – | inconclusive: 56.2 µM [inhibitor, partial curve, poor fit] | – |
| Cc1ccc(-c2noc([C@@H]3C[C@@H](O)CN3Cc3ccc(C(=O)O)cc3)n2)cc1F | inactive: 0.669% [at 138 µM] | – | – |
| Cc1noc(C)c1Cc1ccc(C(=O)N2CC(N(Cc3cccnc3)CC(C)C)C2)o1 | – | inconclusive: 50.1 µM [inhibitor, partial curve, poor fit] | – |
| CCCCCNC(=O)c1noc(-c2ccccc2F)n1 | – | inconclusive: 70.8 µM [inhibitor, single point] | – |
| CC1=C[C@@H](CN2CCN(CCO)CC2)[C@H](C(C)C)C[C@H]1Cc1nnc(-c2ccc(C)cc2)o1 | – | active: 39.8 µM | – |
| Clc1cccc(CN2CC[C@H](c3nc4ccccc4s3)C2)c1 | – | inconclusive: 100 µM [inhibitor, partial curve] | – |
| NCC(=O)N1Cc2ccccc2CC2(CCN(CC3CCOCC3)C2)C1 (stereo unspecified) | inactive: 2.36% | – | – |
| CS(=O)(=O)N1CCCC(C(=O)NCCN2CCOCC2)CCNC(=O)CC1 (stereo unspecified) | inactive: -0.375% | – | – |
| COc1ccc(C(=O)N2CCC(c3n[nH]c(=O)n3-c3ccc(C)cc3)CC2)cn1 | – | active: 28.2 µM | – |
| O=C(NC1CCN(c2nccc(Nc3ccccc3Cl)n2)CC1)c1ccc(F)cc1 | – | inconclusive: 12.6 µM [inhibitor, full curve] | – |
| CC(C)c1noc(-c2cn(C3CCN(C(=O)Cc4ccc(Br)cc4)C3)nn2)n1 (stereo unspecified) | inactive: -16.1% | – | – |
| COc1ccc(C(=O)N2C[C@@H]3CCCN4CCC[C@@H]([C@H]34)[C@H]2CCCC(=O)NCc2ccccc2)cc1 | inactive: -11.7% | – | – |
| CC1CCC(NC(=O)CN2C(=O)NC3(CCOCC3)C2=O)CC1 (stereo unspecified) | inactive: -8.26% | – | – |
| COc1ccccc1NC(=O)N1C[C@@H]2C[C@H](C1)c1c(-c3ccc(NC(C)=O)cc3)ccc(=O)n1C2 | inactive: -12.3% | – | – |
| CCOc1ccccc1CN1CCC2(CCN(C(=O)C3CC3)CC2)Oc2ccccc21 | – | active: 25.1 µM | – |
| Cc1ccccc1CN1Cc2nc(-c3cnn(C)c3)ccc2OCC1=O | – | active: 31.6 µM | – |

| SMILES | activity change, negative = cytotoxicity | Potency | outcome |
| --- | --- | --- | --- |
| Cc1ccc(C(=O)N2CCC3(CC2)CN(C(C)C)C3c2ccccc2)s1 (stereo unspecified) | – | inconclusive: 50.1 µM [inhibitor, partial curve, poor fit] | – |
| CC(C)c1ccc(CC(=O)N2CCCc3ncc(C(=O)Nc4cccc(Cl)c4)cc32)cc1 | – | inconclusive: 35.5 µM [inhibitor, partial curve] | – |
| Cc1cccc(CC(=O)N2CCC[C@H](n3c(=O)n(Cc4ccccc4)c4cccnc43)C2)c1 | – | inconclusive: 44.7 µM [inhibitor, partial curve, poor fit] | – |
| CC(C)N1CCC2(CC1)CN(C(=O)c1cn(C)cn1)Cc1ccccc1O2 | – | inconclusive: 50.1 µM [inhibitor, partial curve, poor fit] | – |
| O=C(C1CCC1)N1CCCCCC1c1nnc(-c2ccccc2)o1 (stereo unspecified) | – | inconclusive: 50.1 µM [inhibitor, partial curve, poor fit] | – |
| CC(C)(C)C(=O)N1CCC(c2nn(-c3ccc(Cl)cc3)c(=O)[nH]2)CC1 | – | inconclusive: 50.1 µM [inhibitor, partial curve, poor fit] | – |
| Cc1ccc(Cn2c(C3CCN(C(=O)c4cc(Cl)ccc4F)CC3)n[nH]c2=O)cc1 | – | inconclusive: 50.1 µM [inhibitor, partial curve, poor fit] | – |
| COCc1nnc(NC(=O)Cn2nc3c(cc2=O)CCCCC3)s1 | inactive: -16.1% | – | – |
| COc1ccc(-c2cc(N3CCCC(NC(=O)c4ccc5ncccc5c4)C3)n[nH]2)cc1 (stereo unspecified) | – | inconclusive: 50.1 µM [inhibitor, partial curve, poor fit] | – |
| CC(C(=O)NCc1ccc(OC(F)(F)F)cc1)C1CCOCC1 (stereo unspecified) | inactive: -1.12% | – | – |
| Cn1nccc1C(=O)N1CCCN(CCc2ccccc2)c2ccccc21 | – | inconclusive: 44.7 µM [inhibitor, partial curve, poor fit] | – |
| CC(C)c1nc2c(c(-c3ccc(O)cc3)n1)CCN(CC1CCCCC1)CC2 | – | inconclusive: 70.8 µM [inhibitor, single point] | – |
| CCN1CC(c2ccccc2)CC2(CCN(C(=O)Nc3ccccc3)CC2)C1 (stereo unspecified) | inactive: -18.8% | – | – |
| CC(=O)NC1(C)CN(c2ccc(OC(F)(F)F)cc2)C1 | – | inconclusive: 56.2 µM [inhibitor, partial curve, poor fit] | – |
| O=C(Nc1cccc(Cl)c1)N1CCC(c2noc(COc3cccnc3)n2)CC1 | – | inconclusive: 35.5 µM [inhibitor, partial curve] | – |
| Cc1nn(-c2ccccc2)c2c1C(C)N(C1CN(C(=O)c3ccc(Cl)nc3)C1)C2=O (stereo unspecified) | – | inconclusive: 70.8 µM [inhibitor, single point] | – |
| O=C(Nc1cccc(-c2cscn2)c1)C1CCN(C(=O)C2CCCO2)CC1 (stereo unspecified) | inactive: -3.53% | – | – |
| O=c1cc(N2CCOCC2)oc2c(-c3ccccc3F)nccc12 | – | active: 8.91 µM | – |
| O=C(c1ccc(F)cc1)N1CCCC(c2nn(-c3ccc(Cl)cc3)c(=O)[nH]2)C1 (stereo unspecified) | – | inconclusive: 50.1 µM [inhibitor, partial curve, poor fit] | – |
| Cc1cccc(CN2CCCC(O)(CNCc3cccc(C)n3)C2=O)c1 (stereo unspecified) | inactive: -22.5% | – | – |
| Cc1cccc(NC(=O)N2CCc3c(C(=O)NC(C)(C)C)cccc32)c1 | inactive: -13.5% | – | – |
| CC(c1cccs1)N(C)Cc1cccc2ccccc12 (stereo unspecified) | – | inconclusive: 50.1 µM [inhibitor, partial curve, poor fit] | – |

| SMILES | activity change, negative = cytotoxicity | Potency | outcome |
| --- | --- | --- | --- |
| Cc1ccc(C(=O)N2CCC3(CC2)N(c2ccccc2)C(=O)CS3(=O)=O)s1 | inactive: -7.91% | – | – |
| CCn1cc(CN2CC(Oc3ccc(-c4noc(-c5ccncc5)n4)cc3)C2)cn1 | – | inconclusive: 11.2 µM [inhibitor, full curve, poor fit] | – |
| COc1cccc(-c2ccc3c(n2)c(=O)ncn3CC2CC2)c1 | – | inconclusive: 89.1 µM [inhibitor, partial curve, poor fit] | – |
| COc1cc(=O)n2c(c1C(=O)NC1CCCCCCC1)CCCC2 | inactive: -1.78% | – | – |
| CC1(c2ccccc2)N(Cc2cccnc2)C(=O)OC12CCN(C(=O)c1ccc(F)cc1)CC2 (stereo unspecified) | – | inconclusive: 11.2 µM [inhibitor, full curve, poor fit] | – |
| O=C(NCCN1CCCCC1)C1CCCN(c2cnc3nccnc3c2)C1 (stereo unspecified) | inactive: -10.4% | – | – |
| CCOC(=O)C1(Cc2ccccc2F)CCCN(C(=O)c2cccc(C(=O)OC)c2)C1 (stereo unspecified) | – | inconclusive: 35.5 µM [inhibitor, partial curve] | – |
| CCC(=O)N1CCC(OC2CCN(Cc3cccnc3)CC2)CC1 | – | – | inactive |
| CCC(=O)N1CCN(c2nc3c(s2)CC(C(=O)Nc2ccc(F)cc2)CC3)CC1 (stereo unspecified) | – | active: 31.6 µM | – |
| CN1C(=O)C(c2ccccc2)CC12CCN(C(=O)CNC(N)=O)CC2 (stereo unspecified) | inactive: 1.97% | – | – |
| CC(C)CN1C(=O)COC[C@@H]1[C@H](O)c1ccc(NC(=O)CCc2ccccc2)cc1 | inactive: -30% [at 138 µM] | – | – |
| CC1(c2ccccc2)N(Cc2ccccc2C#N)C(=O)OC12CCN(C(=O)C1CCOCC1)CC2 (stereo unspecified) | – | inconclusive: 44.7 µM [inhibitor, partial curve, poor fit] | – |
| COc1ccc2[nH]c(C[C@@H]3C[C@@H](C(C)C)[C@H](CNC(=O)C4CCC4)C=C3C)nc2n1 | – | active: 63.1 µM | – |
| O=S1(=O)NC2(CCCN(Cc3ccc(F)cc3)C2)COc2ccccc21 (stereo unspecified) | – | inconclusive: 56.2 µM [inhibitor, partial curve, poor fit] | – |
| COc1cc(Cl)ccc1OCc1nnc(C(=O)N2CCC[C@@H]2c2cccc(F)c2)n1-c1ccccc1 | – | inconclusive: 50.1 µM [inhibitor, partial curve, poor fit] | – |
| CC(C)(CC(=O)O)CC(=O)N1C[C@@H]2C[C@H](C1)c1ccc(-c3cc4ccccc4s3)c(=O)n1C2 | inactive: -15.3% | – | – |
| O=C(COc1ccccc1)Nc1ccc([C@@H](O)[C@H]2COCC(=O)N2CCCc2ccccc2)cc1 | – | inconclusive: 44.7 µM [inhibitor, partial curve, poor fit] | – |
| Cc1cc(C(=O)N2CCCC(c3noc(COc4ccccc4)n3)C2)nn1C (stereo unspecified) | – | inconclusive: 35.5 µM [inhibitor, partial curve] | – |
| CC(=O)N1CCN(C(=O)c2ccc(-c3ncc4cnc(-c5cccc(F)c5)cn34)cc2)CC1 | – | inconclusive: 44.7 µM [inhibitor, partial curve, poor fit] | – |
| COc1cccc(C(=O)N2CCC(C(=O)N3CCC4(CC3)CC(=O)Nc3ccccc3O4)C2)c1 (stereo unspecified) | inactive: -14.3% | – | – |
| COc1ccc(C(=O)N2CCC3(CC2)C(OC)C(=O)N3c2cccc(F)c2)cn1 (stereo unspecified) | inactive: -2.87% | – | – |
| CCN1C(=O)C2(CCN(C(=O)NCCC(C)C)CC2)c2ccccc21 | inactive: -1.31% | – | – |
